# Measurements taken from the supplement of paper PMC8728848.
# This is one part of the list.
# B1: SSR1 (Sclerotium rolfsii), A0A0M3KL30 (protein)
# chain: TYKITVRVYQTNPDAFFHPVEKTVWKYANGGTWTITDDQHVLTMGGSGTSGTLRFHADNGESFTATFGVHNYKRWCDIVTNLAADETGMVINQQYYSQKNREEARERQLSNYQVKNAKGRNFQIVYTEAEGNDLHANLIIG
# Experiments:
# Test in all cases: glycan array binding signal (z-score within array); higher = stronger binding
# Conditions in all cases: glycan notation: IUPAC condensed, linker removed
# [1] = target: Gal(b1-4)GlcNAc(b1-6)Gal(b1-4)GlcNAc
# How it was run: (§1)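 Glycan array binding is given as a within-array Z-score, which can be read as non-binding when negative. The arrays, 3228 of them, came from the Consortium for Functional Glycomics database and were retained only where the protein sequence was available. Z-scores were averaged across arrays of the same protein sequence at different concentrations or buffers and across linkers.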
# [2] = target: Gal(b1-4)GlcNAc(b1-6)GalNAc
# How it was run: as §1
# [3] = target: Gal(b1-4)GlcNAc(b1-6)[Gal(b1-3)]GalNAc
# How it was run: as §1
# [4] = target: Gal(b1-4)GlcNAc(b1-6)[Gal(b1-4)GlcNAc(b1-3)]GalNAc
# How it was run: as §1
# Gal(b1-4)GlcNAc6P = target: Gal(b1-4)GlcNAc6P
# How it was run: as §1
# Gal(b1-6)Gal = target: Gal(b1-6)Gal
# How it was run: as §1
# Gal3S(b1-3)GalNAc = target: Gal3S(b1-3)GalNAc
# How it was run: as §1
# Gal3S(b1-3)GlcNAc = target: Gal3S(b1-3)GlcNAc
# How it was run: as §1
# [5] = target: Gal3S(b1-3)[Fuc(a1-4)]GlcNAc
# How it was run: as §1
# Gal3S(b1-4)Glc = target: Gal3S(b1-4)Glc
# How it was run: as §1
# Gal3S(b1-4)Glc6S = target: Gal3S(b1-4)Glc6S
# How it was run: as §1
# Gal3S(b1-4)GlcNAc = target: Gal3S(b1-4)GlcNAc
# How it was run: as §1
# [6] = target: Gal3S(b1-4)[Fuc(a1-3)]Glc6S
# How it was run: as §1
# [7] = target: Gal3S(b1-4)[Fuc(a1-3)]GlcNAc
# How it was run: as §1
# [8] = target: Gal3S(b1-4)[Fuc(a1-3)]GlcNAc6S
# How it was run: as §1
# Gal3S4S(b1-4)GlcNAc = target: Gal3S4S(b1-4)GlcNAc
# How it was run: as §1
# Gal3S6S(b1-4)GlcNAc = target: Gal3S6S(b1-4)GlcNAc
# How it was run: as §1
# Gal3S6S(b1-4)GlcNAc6S = target: Gal3S6S(b1-4)GlcNAc6S
# How it was run: as §1
# Gal4S(b1-4)GlcNAc = target: Gal4S(b1-4)GlcNAc
# How it was run: as §1
# Gal4S6S(b1-4)GlcNAc = target: Gal4S6S(b1-4)GlcNAc
# How it was run: as §1
# Gal6P(b1-4)GlcNAc = target: Gal6P(b1-4)GlcNAc
# How it was run: as §1
# Gal6S(b1-3)GlcNAc = target: Gal6S(b1-3)GlcNAc
# How it was run: as §1
# Gal6S(b1-3)GlcNAc6S = target: Gal6S(b1-3)GlcNAc6S
# How it was run: as §1
binder,measurement,setting,value
B1,glycan array binding signal (z-score),[1],-0.353
same,glycan array binding signal (z-score),[2],-0.289
same,glycan array binding signal (z-score),[3],0.97
same,glycan array binding signal (z-score),[4],-0.343
same,glycan array binding signal (z-score),Gal(b1-4)GlcNAc6P,-0.363
same,glycan array binding signal (z-score),Gal(b1-6)Gal,-0.338
same,glycan array binding signal (z-score),Gal3S(b1-3)GalNAc,1.54
same,glycan array binding signal (z-score),Gal3S(b1-3)GlcNAc,-0.322
same,glycan array binding signal (z-score),[5],-0.321
same,glycan array binding signal (z-score),Gal3S(b1-4)Glc,-0.337
same,glycan array binding signal (z-score),Gal3S(b1-4)Glc6S,-0.335
same,glycan array binding signal (z-score),Gal3S(b1-4)GlcNAc,-0.327
same,glycan array binding signal (z-score),[6],-0.296
same,glycan array binding signal (z-score),[7],-0.326
same,glycan array binding signal (z-score),[8],-0.335
same,glycan array binding signal (z-score),Gal3S4S(b1-4)GlcNAc,-0.331
same,glycan array binding signal (z-score),Gal3S6S(b1-4)GlcNAc,-0.319
same,glycan array binding signal (z-score),Gal3S6S(b1-4)GlcNAc6S,-0.345
same,glycan array binding signal (z-score),Gal4S(b1-4)GlcNAc,-0.339
same,glycan array binding signal (z-score),Gal4S6S(b1-4)GlcNAc,-0.339
same,glycan array binding signal (z-score),Gal6P(b1-4)GlcNAc,-0.333
same,glycan array binding signal (z-score),Gal6S(b1-3)GlcNAc,-0.324
same,glycan array binding signal (z-score),Gal6S(b1-3)GlcNAc6S,-0.339
